The campaign covered roughly 330,000 compounds. About 4,200 (1.3%) were called active. Inconclusive means that the source gave no clear call. Such entries were picked first, then a sample of the others. Calls follow the shape of the dose curve; as a rule, active = well fitted activation curve with a large enough effect; inconclusive = small, poorly fitted or top-dose-only effect; inactive = no such curve, though single readings can be large or run the other way. Potencies of inconclusive entries are doubtful fits and often do not repeat.
Test: qHTS screen for small molecules that induce genotoxicity in human embryonic kidney (HEK293T) cells expressing luciferase-tagged ELG1; also: nearly all actives have a fitted effect of over 60% in size
Details: HEK293T ELG1-luciferase reporter, luminescence, 16 h; series mostly up to 46 µM
Method in brief: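 HEK293T cells expressing luciferase-tagged ELG1 were treated with compound or DMSO for 16 hr at 37°C. Luciferase activity was then read after 30 min with ONE-Glo at room temperature; rising signal flags genetic stress.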
Potency is read from the fitted curve at half-maximal effect; tags tell the direction and shape of the fitted curve.

Question: Which Potency does the source give for `CS(=O)(=O)c1cnc(-c2ccccc2)nc1Sc1ccc(F)cc1` here?
Answer: The Potency was inconclusive: 29.1 µM [activator, single point].

Question: With `COc1ccc(OC)c(/C=N/NC(=O)c2ccc3nc[nH]c3c2)c1` as the molecule, how does the Potency read?
Answer: Its Potency is “inactive”.

Question: With `c1ccc(Nc2nc(N3CCCCC3)nc(N3CCCCC3)n2)cc1` as the molecule, how does the Potency read?
Answer: The Potency was “inactive”.

Question: Which Potency does the source give for `O=C(CSc1nnc2ccccn12)c1ccc2c(c1)OCCO2` here?
Answer: Its Potency is active: 2.91 µM.

Question: With `CC1CCc2c(C(=O)Nc3nccs3)csc2C1` (stereo not drawn) as the molecule, how does the Potency read?
Answer: Its Potency is inconclusive: 13 µM [activator, partial curve, poor fit].

Question: With `O=C(C1=C[C@@H](c2ccccc2)C[C@@H](OCCCCO)O1)N1CCN(Cc2ccc3c(c2)OCO3)CC1` as the molecule, how does the Potency read?
Answer: Its Potency is “inactive”.

Question: Which Potency does the source give for `COc1ccc(-c2cc(-c3ccc(OC)cc3)[nH]n2)cc1` here?
Answer: The Potency was inconclusive: 10.3 µM [activator, partial curve].

Question: For `COc1cc(NC2c3ccccc3C(=O)N2c2cc(C)ccn2)cc(OC)c1OC` (stereo not drawn), which Potency is on record?
Answer: Its Potency is inconclusive: 20.6 µM [activator, partial curve, poor fit].

Question: Which Potency does the source give for `CCOc1ccc2c(c1)C(C)=CC(C)(C)N2S(=O)(=O)c1ccc(NC(C)=O)cc1` here?
Answer: The Potency was inconclusive: 2.06 µM [activator, partial curve, poor fit].

Question: With `O=C(NC(=S)N1CCCc2ccccc21)c1ccco1` as the molecule, how does the Potency read?
Answer: The Potency was inconclusive: 20.6 µM [activator, partial curve, poor fit].

Question: With `CCCCN(C)C(=O)c1cc2cc3cc(OC)ccc3nc2o1` as the molecule, how does the Potency read?
Answer: The Potency was “inactive”.

Question: For `O=C(CC1CS(=O)(=O)CC1CC(=O)Nc1ccc2c(c1)OCCO2)Nc1ccc2c(c1)OCCO2` (stereo not drawn), which Potency is on record?
Answer: The Potency was inconclusive: 1.46 µM [activator, full curve, poor fit].

Question: For `Cc1c(CC(=O)N[C@H](C(=O)O)C(C)C)c(=O)oc2cc3c(cc12)CCC(C)(C)O3`, which Potency is on record?
Answer: Its Potency is inconclusive: 10.3 µM [activator, partial curve, poor fit].

Question: With `CCC(C)(C)NC(=O)CN(C(=O)CNS(=O)(=O)c1ccc(F)cc1)c1ccc2c(c1)OCCO2` as the molecule, how does the Potency read?
Answer: The Potency was inconclusive: 29.1 µM [activator, single point].

Question: With `O=C(COC(=O)c1ccc([N+](=O)[O-])cc1)Nc1ccccc1C(=O)NC1CC1` as the molecule, how does the Potency read?
Answer: The Potency was “inactive”.

Question: Which Potency does the source give for `C(=N\Nc1nc2ccccc2[nH]1)/c1cccs1` here?
Answer: Its Potency is inconclusive: 3.66 µM [activator, partial curve, poor fit].

Question: Which Potency does the source give for `O=C(NCc1ccco1)C1CC(c2cc(C(F)(F)F)cc(C(F)(F)F)c2)=NO1` (stereo not drawn) here?
Answer: The Potency was inconclusive: 25.9 µM [activator, partial curve, poor fit].

Question: For `Cc1ccc(C(=O)Cn2nnc3ccccc32)cc1`, which Potency is on record?
Answer: The Potency was inconclusive: 16.4 µM [activator, partial curve, poor fit].

Question: For `CCOc1ccc(CNc2ccc(CNc3ncn[nH]3)cc2)cc1`, which Potency is on record?
Answer: The Potency was “inactive”.

Question: For `CC(=O)c1ccc(N2CCN(C(=O)c3cccs3)CC2)c(F)c1`, which Potency is on record?
Answer: The Potency was “inactive”.

Question: With `O=C(NCC1CCCO1)c1cc2c(s1)CCCC2` (stereo not drawn) as the molecule, how does the Potency read?
Answer: Its Potency is inconclusive: 11.6 µM [activator, partial curve].

Question: With `CC1=CC(C)(C)Nc2ccc(OC(=O)CN3C(=O)c4ccccc4C3=O)cc21` as the molecule, how does the Potency read?
Answer: Its Potency is inconclusive: 29.1 µM [activator, single point].

Question: For `CC(=O)c1ccc(S(=O)(=O)NCCCC(=O)NCCc2ccccn2)cc1`, which Potency is on record?
Answer: The Potency was “inactive”.

Question: With `CC(=NC1CCCCC1)C1=C(O)c2ccccc2C1=O` as the molecule, how does the Potency read?
Answer: The Potency was inconclusive: 2.31 µM [activator, partial curve].

Question: For `O=C(N/N=C/c1cccc(F)c1)c1csc2c1CCCC2`, which Potency is on record?
Answer: The Potency was inconclusive: 2.91 µM [activator, single point].

Question: With `Cc1ccc(C(=O)NCCc2csc(-c3cccnc3)n2)cc1` as the molecule, how does the Potency read?
Answer: The Potency was inconclusive: 23.1 µM [activator, partial curve].

Question: With `CCC(=O)NC(=S)Nc1ccc(NC(=S)NC(=O)c2ccc(C)cc2)cc1` as the molecule, how does the Potency read?
Answer: Its Potency is inconclusive: 20.6 µM [activator, single point].

Question: With `CCOC(=O)C1CCCN(C(=O)c2ccc3nc(-c4cccc(OC)c4)oc3c2)C1` (stereo not drawn) as the molecule, how does the Potency read?
Answer: The Potency was inconclusive: 4.61 µM [activator, partial curve].

Question: Which Potency does the source give for `CCCc1cc(C(=O)NCc2cccs2)no1` here?
Answer: Its Potency is inconclusive: 14.6 µM [activator, single point].

Question: With `O=C(CSc1nc2ccccc2[nH]1)N/N=C/c1ccco1` as the molecule, how does the Potency read?
Answer: The Potency was inconclusive: 32.6 µM [activator, partial curve, poor fit].

Question: With `CCCCn1c(N)c(N(CC)C(=O)C2=COCCO2)c(=O)[nH]c1=O` as the molecule, how does the Potency read?
Answer: The Potency was “inactive”.

Question: With `CNc1[nH]ncc1[N+](=O)[O-]` as the molecule, how does the Potency read?
Answer: Its Potency is inconclusive: 23.1 µM [activator, partial curve, poor fit].

Question: Which Potency does the source give for `CCc1nnc(NC(=O)CSc2nc3cc4c(cc3cc2CC)OCCO4)s1` here?
Answer: Its Potency is “inactive”.

Question: With `CC(C)(C)C1CCc2onc(C(=O)NC3CCCC3)c2C1` (stereo not drawn) as the molecule, how does the Potency read?
Answer: The Potency was “inactive”.

Question: Which Potency does the source give for `CCCOC(=O)c1[nH]c2c(c1C)C(=O)CC(c1cc(OC)c(OC)c(OC)c1)C2` (stereo not drawn) here?
Answer: Its Potency is inconclusive: 23.1 µM [activator, partial curve, poor fit].

Question: With `C/C(=N\NC(=O)COc1ccccc1-c1ccccc1)c1ccccn1` as the molecule, how does the Potency read?
Answer: The Potency was inconclusive: 29.1 µM [activator, single point].

Question: For `Cc1cc(C)cc(NC(=O)Cn2cnc3c(nnn3Cc3ccc(F)cc3)c2=O)c1`, which Potency is on record?
Answer: The Potency was inconclusive: 7.3 µM [activator, partial curve].

Question: Which Potency does the source give for `O=C(NNC(=O)c1cc2ccccc2cc1O)c1cccs1` here?
Answer: Its Potency is inconclusive: 5.17 µM [activator, partial curve].

Question: With `Clc1ccc(Nc2nc3ccccc3n3nnnc23)cc1` as the molecule, how does the Potency read?
Answer: Its Potency is inconclusive: 32.6 µM [activator, partial curve, poor fit].

Question: With `Cc1ccc(NC(=O)c2ccc3c(c2)nnn3C)cc1` as the molecule, how does the Potency read?
Answer: The Potency was inconclusive: 25.9 µM [activator, partial curve, poor fit].

Question: For `C/C(=N\NC(=O)c1cccc(S(=O)(=O)N2CCOCC2)c1)c1ccc(O)cc1`, which Potency is on record?
Answer: Its Potency is “inactive”.

Question: For `CCOC(=O)CCCC(=O)N1CCOCCOCCN(C(=O)CCCC(=O)OCC)CCOCCOCC1`, which Potency is on record?
Answer: The Potency was inconclusive: 16.4 µM [activator, single point].

Question: For `O=C(Oc1ccc(-c2cnc3ccccc3n2)cc1)c1ccc(Cl)c([N+](=O)[O-])c1`, which Potency is on record?
Answer: Its Potency is active: 8.2 µM.
